According to PMC12820563, “FoxP3 forms a head-to-head dimer in vivo and stabilizes its multimerization on adjacent microsatellites”:
Some of the results follow.

Target: T1, MBP-FoxP1dN (Mus musculus, UniProt P58462 326-579)
T1 sequence: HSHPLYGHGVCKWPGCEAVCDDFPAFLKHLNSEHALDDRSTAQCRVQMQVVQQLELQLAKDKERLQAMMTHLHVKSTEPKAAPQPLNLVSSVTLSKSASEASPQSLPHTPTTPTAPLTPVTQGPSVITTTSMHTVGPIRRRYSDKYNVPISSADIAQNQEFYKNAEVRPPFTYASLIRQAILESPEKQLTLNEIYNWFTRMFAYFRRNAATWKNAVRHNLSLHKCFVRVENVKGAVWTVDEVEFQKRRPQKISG
Assay: PD-seq (MBP pull-down with sequencing); 20 mM Tris-HCl pH 7.5, 100 mM NaCl, 1.5 mM MgCl2, 0.4 uM protein, 0.1 uM dsDNA library, 30 min, room temperature, amylose pull-down; high values mean tight binding
Settings: protein: recombinant; tags: His6-MBP; chain copies: 2; dsDNA, one strand shown
How it was run: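 Amylose resin was used to capture complexes formed during 30 min at room temperature in Tris pH 7.5 buffer with NaCl and MgCl2 between 0.4 µM His6-MBP-tagged mouse FoxP3 or FoxP1 fragment lacking the N-terminus, expressed in E. coli, and 0.1 µM Klenow-filled double-stranded degenerate DNA library. After three washes, the DNA was released with proteinase K, barcoded by PCR and sequenced on Illumina. Binding is pooled-replicate reads-per-million enrichment, pull-down over input.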

Row | Sequence | binding signal
1 | GATGATTGTTCTCCCAGCTGATGAATTGAGCTTTTCGAGTAAACAAATTTTCCTAATCTTTCTGTTCAAGCGCCATCTAC | 0.926 RPM ratio (pull-down/input)
2 | GATGATTGTTCTCCCAGCTGATGAATTCTCACGGTCGAGTAAACAAATTTTCCTAATCTTTCTGTTCAAGCGCCATCTAC | 0.804 RPM ratio (pull-down/input)
3 | GATGATTGTTCTCCCAGCTGATGAATTCACGTCATCGAGTAAACAAATTTTCCTAATCTTTCTGTTCAAGCGCCATCTAC | 0.991 RPM ratio (pull-down/input)
4 | GATGATTGTTCTCCCAGCTGATGAATTTGATACGTCGAGTAAACAAATTTTCCTAATCTTTCTGTTCAAGCGCCATCTAC | 1.03 RPM ratio (pull-down/input)
5 | GATGATTGTTCTCCCAGCTGATGAATTCATTCTTTCGAGTAAACAAATTTTCCTAATCTTTCTGTTCAAGCGCCATCTAC | 0.946 RPM ratio (pull-down/input)
6 | GATGATTGTTCTCCCAGCTGATGAATTATCGCAGTCGAGTAAACAAATTTTCCTAATCTTTCTGTTCAAGCGCCATCTAC | 0.952 RPM ratio (pull-down/input)
7 | GATGATTGTTCTCCCAGCTGATGAATTTTACTCTTCGAGTAAACAAATTTTCCTAATCTTTCTGTTCAAGCGCCATCTAC | 0.856 RPM ratio (pull-down/input)
8 | GATGATTGTTCTCCCAGCTGATGAATTTGTAAACTCGAGTAAACAAATTTTCCTAATCTTTCTGTTCAAGCGCCATCTAC | 1.41 RPM ratio (pull-down/input)
9 | GATGATTGTTCTCCCAGCTGATGAATTCTCTGCATCGAGTAAACAAATTTTCCTAATCTTTCTGTTCAAGCGCCATCTAC | 1.15 RPM ratio (pull-down/input)
10 | GATGATTGTTCTCCCAGCTGATGAATTTGGCGTATCGAGTAAACAAATTTTCCTAATCTTTCTGTTCAAGCGCCATCTAC | 0.959 RPM ratio (pull-down/input)
11 | GATGATTGTTCTCCCAGCTGATGAATTGATTATCTCGAGTAAACAAATTTTCCTAATCTTTCTGTTCAAGCGCCATCTAC | 1.22 RPM ratio (pull-down/input)
12 | GATGATTGTTCTCCCAGCTGATGAATTTCTCTAGTCGAGTAAACAAATTTTCCTAATCTTTCTGTTCAAGCGCCATCTAC | 0.844 RPM ratio (pull-down/input)
13 | GATGATTGTTCTCCCAGCTGATGAATTTGCGCAGTCGAGTAAACAAATTTTCCTAATCTTTCTGTTCAAGCGCCATCTAC | 0.932 RPM ratio (pull-down/input)
14 | GATGATTGTTCTCCCAGCTGATGAATTCTTGCACTCGAGTAAACAAATTTTCCTAATCTTTCTGTTCAAGCGCCATCTAC | 0.933 RPM ratio (pull-down/input)
15 | GATGATTGTTCTCCCAGCTGATGAATTTTCATTGTCGAGTAAACAAATTTTCCTAATCTTTCTGTTCAAGCGCCATCTAC | 1.19 RPM ratio (pull-down/input)
16 | GATGATTGTTCTCCCAGCTGATGAATTTGTGGGCTCGAGTAAACAAATTTTCCTAATCTTTCTGTTCAAGCGCCATCTAC | 0.875 RPM ratio (pull-down/input)
17 | GATGATTGTTCTCCCAGCTGATGAATTTTATGCATCGAGTAAACAAATTTTCCTAATCTTTCTGTTCAAGCGCCATCTAC | 1.38 RPM ratio (pull-down/input)
18 | GATGATTGTTCTCCCAGCTGATGAATTAGCTCCATCGAGTAAACAAATTTTCCTAATCTTTCTGTTCAAGCGCCATCTAC | 0.985 RPM ratio (pull-down/input)
